# From the RNAGym collection of RNA variant scans (doi:10.1073/pnas.2313332121)
# Variants at the floor of the assay are shown more often than the library holds them.
# B1: TPR 5TU (parent)
# chain: GGAUCUUCUCGAUCUAACAAAAAAGACAAAUCUGCCACAAAGCUUGAGAGCAUCUUCGGAUGCAGAGGCGGCAGCCUUCGGUGGCGCGAUAGCGCCAACGUUCUCAACUAUGACACGCAAAACGCGUGCUCCGUUGAAUGGAGUUUAUCAUG
# Variants of: B1
# Assay: polymerase ribozyme fitness, log enrichment relative to wild type (log ratio); higher = more active; in vitro selection for triplet polymerase activity
# In short: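 Genotype fitness is the logarithm of its enrichment divided by wild-type enrichment, using inverse-variance-weighted averages of replicates. That logarithm is base 2. Enrichment was measured by Illumina sequencing of input and output libraries from one triplicate in vitro selection round, with frozen incubation at −7 °C, on PCR-built, transcribed mutant libraries of each subunit of a heterodimeric triplet polymerase ribozyme, retaining genotypes with ≥10 input reads and ≥1 read per output.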
row,Variant,polymerase ribozyme fitness (log ratio)
1,A20U C27U A41G U82A C93G A137C G141A,≤ -4.2
2,A20U A24G G50C G83A A98C U109G A115G C149A,≤ -4.2
3,A21U A23G A28C G59A C76G U90G C114U G141C,≤ -4.2
4,A21U A73U C116A U134A G141C A150G,≤ -4.2
5,A20U A26G C75A C76U C93G G112U C118G G124A,≤ -4.2
6,A21C C75A A91U A98U A120G,≤ -4.2
7,A21C C38U G68A C87A A91C C93A U101C A150C,≤ -4.2
8,A21U C79G,-3.91
9,A21C C38A U55A A91G C93U U109G,≤ -4.2
10,A20C A30G G50U C95G A147G,≤ -4.2
11,A21G G88U A97G C103G U144A,≤ -4.2
12,A20U A23U C57G U78G,≤ -4.2
13,A21C G59A,-0.0146
14,A20C U53A U55A,-2.52
15,A21G G68C G83U G92A U102A A137G A142G,≤ -4.2
16,A21U A30G A52C U55G C87U A89U C116A,≤ -4.2
17,A21G G94A,-1.01
18,A20U G50C G67C U78G C96A A142C,≤ -4.2
19,A21C U61C C75A A91G A97G C99A A106U U144G,≤ -4.2
20,A21G U151C,-3.8
21,A20U A21U U31C U44A A52C U55A C57U G86A C87A C96A C123A G141C,≤ -4.2

row,Variant,polymerase ribozyme fitness (log ratio)
1,A21U A26G G71A C125U,≤ -4.2
2,A21C G48A U53A C75G C76A G84U G100A,≤ -4.2
3,A20G G68A G94C,≤ -4.2
4,A20U A22C A41C C54U C85U G88A C99U C114U,≤ -4.2
5,A20G A26U U82G U101A C105U A120U A138U,≤ -4.2
6,A20G G59A,-0.551
7,A20U A22C U53A G92U C96A A138G,≤ -4.2
8,A21G G50C G71C C79A C95G A121U U127G G136U U139C A142C U145G,≤ -4.2
9,A20C U55G C57U C63G A66U G94C U104G,≤ -4.2
10,A21U A113U A137G U144A,-3.99
11,A21C C85U,-0.369
12,A20U A26G G42A C76U G83U,≤ -4.2
13,A20C U31G A40U,-0.279
14,A21C U33G C87U U145A A150U,≤ -4.2
15,A21U G50A C57G C96G C108U U148C G152A,≤ -4.2
16,A21U C96A A106G G128C G133U,≤ -4.2
17,A21C G48A C79G G83U G88U U102C U104A U109C C131A G136A,≤ -4.2
18,A20U A41C U90G A97C,≤ -4.2
19,A21U A91G C93A U101C U148G,≤ -4.2
20,A21U A39C C57U A97G,-2.62
21,A20U A49G A66C A73U C79U A106U A107C,≤ -4.2

row,Variant,polymerase ribozyme fitness (log ratio)
1,A21C G88A U104G A107U,≤ -4.2
2,A21G C57A,1.14
3,A21C G58C U61G U146G,-3.25
4,A21C C93G,-3
5,A20U A47C C57U A64C G84C U148G,≤ -4.2
6,A20C A49G,-0.512
7,A20C A39C G59C G84U A89C A106U,≤ -4.2
8,A21G U45A G100A A122C,≤ -4.2
9,A20U U44A A49C A150U,≤ -4.2
10,A20C U130G U144C,-4.14
11,A20U U82C C103U A115U G126C U144A,≤ -4.2
12,A20G A21C G84U C95G G117U,-0.439
13,A21C G25A U127G,≤ -4.2
14,A21G A37U,-0.976
15,A21C C27A A41C C69G A73C G81A C85G C123A A137G A142C,≤ -4.2
16,A20U A40U C96U C103G U104C G126C,≤ -4.2
17,A20G G58A C69U G71A A110G C129A U135A U148C,≤ -4.2
18,A20U A52U C76A C93A,≤ -4.2
19,A21U C69U A91U U127A G141A C149A,≤ -4.2
20,A21C C57A C85G U130G,-4
21,A21C G25A C63G,-3.29

row,Variant,polymerase ribozyme fitness (log ratio)
1,A21C G34U G80A C95A C103G C116U C118G,≤ -4.2
2,A20U C36U C54G G81C G92A C99U,≤ -4.2
3,A20C G62A G86U,-2.06
4,A20G A52C G67A C87U C131U G141C,≤ -4.2
5,A20U A21U G48A U56A C63A G94C U111G G128A U148C,≤ -4.2
6,A20C U45A C75G C95U C99U C108U,≤ -4.2
7,A21C A24U A40G U144A,-3.76
8,A20U G83A C96G C118U U134A U144A,-3.46
9,A21G G81A C95U A107G A119C G141U,≤ -4.2
10,A20U A23C A47C U55G G86U A91G,≤ -4.2
11,A21C G112A A142C G143A,≤ -4.2
12,A21G C35U A64U C96U U134A,≤ -4.2
13,A20U A30C C35U U56A C85A,≤ -4.2
14,A20U A40U C69A,-2.77
15,A20C G94C C99G G128U,≤ -4.2
16,A21G A23G C38G A39C U55A G59A G80A C93U U102G U111G A150G,≤ -4.2
17,A20U A30C G81C G86A,≤ -4.2
18,A21G C36U A52U C116U A120U U144C,-3.59
19,A20U A26G C57U C95A G143U U148C,≤ -4.2
20,A21G C85G U102G,≤ -4.2
21,A20G A21U A26U A29U A39C A91G G94U A97G C99A C131A A142G,≤ -4.2
